Measurements reported in the supplement of paper PMC4604168 (melanoma cell lines).
The other results are listed elsewhere or left out. Most values come without repeats; read them as rough.

What was measured:
Experiment in all cases: cell count relative to DMSO control; melanoma cells; higher = more viable cells
Conditions in all cases: library dose: low library concentration; 72 h
MZ2-MEL = test system: MZ2-MEL
MeWo = test system: MeWo
RPMI7951 = test system: RPMI7951
RVH-421 = test system: RVH-421
SkMel28 = test system: SkMel28
SkMel2 = test system: SkMel2
SkMel30 = test system: SkMel30
SkMel5 = test system: SkMel5
UACC257 = test system: UACC257
UACC62 = test system: UACC62
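Note: cell number obtained by counting DAPI-stained nuclei in high-throughput microscope images with image analysis software, screen run in 1,536-well plates.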

Structure (SMILES)	cell count (MZ2-MEL)	cell count (MeWo)	cell count (RPMI7951)	cell count (RVH-421)	cell count (SkMel28)	cell count (SkMel2)	cell count (SkMel30)	cell count (SkMel5)	cell count (UACC257)	cell count (UACC62)
Clc1ccc(Nc2nnc(Cc3ccncc3)c3ccccc23)cc1 [vatalanib] + c1cc(-c2cnn3cc(-c4ccc(OCCN5CCCCC5)cc4)cnc23)ccn1 [Dorsomorphin] (first compound 2 µM, partner dose 0.4 µM)	87.2%	78.2%	82.5%	128%	100%	91.7%	95.4%	79.8%	87.4%	86.9%
COCC[n+]1c2c(n(Cc3cnccn3)c1C)C(=O)c1ccccc1C2=O + NC(=O)Nc1cc(-c2cccc(F)c2)sc1C(=O)N[C@H]1CCCNC1 [AZD7762] (first compound 0.0004 µM, partner dose 0.02 µM)	50.7%	91.2%	61.4%	138%	103%	94.1%	83.5%	71.2%	116%	98.2%
Cn1c(Nc2ccc(C(F)(F)F)cc2)nc2cc(Oc3ccnc(-c4ncc(C(F)(F)F)[nH]4)c3)ccc21 + CO[C@@H]1[C@H](N(C)C(=O)c2ccccc2)C[C@H]2O[C@]1(C)n1c3ccccc3c3c4c(c5c6ccccc6n2c5c31)C(=O)NC4 [Midostaurin] (first compound 0.08 µM, partner dose 0.08 µM)	80.2%	57.5%	63.1%	62.2%	63.4%	76.9%	71.2%	65.4%	50.6%	67.7%
Clc1ccc(Nc2nnc(Cc3ccncc3)c3ccccc23)cc1 [vatalanib] + NCC(=O)Nc1ccc(-n2nc(C(F)(F)F)cc2-c2ccc3c(ccc4ccccc43)c2)cc1 [OSU03012] (first compound 2 µM, partner dose 1 µM)	77.2%	55.1%	86.6%	87.9%	90.6%	68.6%	46.1%	89%	87.2%	95.1%
OCc1c[nH]c2ccccc12 [Indole-3-carbinol] + CC(C)(C)c1cnc(CSc2cnc(NC(=O)C3CCNCC3)s2)o1 [SNS-032] (first compound 0.8 µM, partner dose 0.01 µM)	101%	102%	88%	108%	73.8%	97.3%	109%	96.5%	97.5%	87.3%
OCc1c[nH]c2ccccc12 [Indole-3-carbinol] + C=CCn1c(=O)c2cnc(Nc3ccc(N4CCN(C)CC4)cc3)nc2n1-c1cccc(C(C)(C)O)n1 [MK1775] (first compound 0.8 µM, partner dose 0.02 µM)	103%	102%	109%	104%	85.8%	105%	84.3%	69.2%	81.1%	81.3%
OCc1c[nH]c2ccccc12 [Indole-3-carbinol] + O=C1NC(=O)/C(=C/c2ccc(-c3ccc(F)cc3O)o2)S1 [AS252424] (first compound 0.8 µM, partner dose 1 µM)	96.9%	90.8%	108%	22.5%	71.5%	94.6%	88.7%	103%	83.9%	102%
OCc1c[nH]c2ccccc12 [Indole-3-carbinol] + Cn1cc(/C=C2\C(=O)Nc3cccnc32)c2ccccc21 [GW441756] (first compound 0.8 µM, partner dose 0.4 µM)	98.9%	105%	97.3%	105%	81.3%	113%	84.6%	85.6%	79.6%	90.3%
C#Cc1cccc(Nc2ncnc3cc(OCCOC)c(OCCOC)cc23)c1 [erlotinib] + COc1cc(Nc2ncc(F)c(Nc3ccc4c(n3)NC(=O)C(C)(C)O4)n2)cc(OC)c1OC [Tamatinib] (first compound 0.8 µM, partner dose 0.4 µM)	89.2%	83.7%	90.6%	107%	81.8%	96.9%	95.4%	102%	79.2%	83.2%
C#Cc1cccc(Nc2ncnc3cc(OCCOC)c(OCCOC)cc23)c1 [erlotinib] + Cc1ccc(NC(=O)c2cccc(N(C)C)c2)cc1NC(=O)c1ccc(O)cc1 [ZM336372] (first compound 0.8 µM, partner dose 2 µM)	74.6%	109%	96.9%	102%	101%	112%	85%	94%	81.4%	96.7%
O=C(CCCCCCC(=O)Nc1ccccc1)NO [vorinostat] + C=CCn1c(=O)c2cnc(Nc3ccc(N4CCN(C)CC4)cc3)nc2n1-c1cccc(C(C)(C)O)n1 [MK1775] (first compound 0.08 µM, partner dose 0.02 µM)	113%	100%	106%	102%	77.7%	96.4%	98.3%	81.8%	101%	93%
